Results published in the supplement of paper PMC11417369.
This is one part of the list.

System: PF3D7_0420300 AP2 domain 1 (GST-tagged)
Experiment: gcPBM binding intensity (ln(normalized median fluorescence intensity)); higher = stronger DNA binding
How it was run: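 Using an Agilent 4 × 180k array, primer-extended double-stranded 36-bp intergenic genomic probes and negative controls were exposed for 1 h to GST-fused P. falciparum DNA-binding domains expressed in E. coli. Binding was carried out in 1× PBS with 1% milk, 0.2 mg/ml BSA, 0.5% salmon testes DNA and 0.03% Triton X-100, and protein was detected with Alexa488 anti-GST antibody and a 488 nm scan. Binding intensity is the highest Masliner-normalised natural-log median intensity across replicate spots of either probe orientation.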

| Sequence | gcPBM binding intensity (ln) |
| --- | --- |
| TGCCTTATTAAAAGAATTACACATATTTAATCGAAA [GTGCAC_negctrl_site153] | 8.89 |
| ATTCATAACAAAAAAAGTACTCAAAATAATAATAAA [XGTACX_site6079] | 9.22 |
| TATTAAAAAATTATATGTACACATTTGTTATATACA [XGTACX_site2232] | 9.05 |
| ATAAAAAAATAAATAACACACAAAATTACACGAAAA [CACACA_site3620] | 9.95 |
| AATTAAAGGAATTACAACTTTGCAAGCGCAACATAA [CACACA_negctrl_site1411] | 9.12 |
| TTCTTTATATATGTTCGTACATATTATTATAATACA [XGTACX_site1549] | 9.38 |
| TATGTCCATATTTCCACACACATATTATTTTTATAT [CACACA_site3798] | 9.8 |
| GATTCATTTCGTAATACACACAACAAATATTTCAAA [CACACA_site1772] | 9.47 |
| AATGTAAATAAGTGTACACATATATAATACATACAT [CACACA_site4938] | 9.56 |
| TACCTTATATTATATACACACATATAATATAATATA [CACACA_site1328] | 9.41 |
| ATTCAATAAACGTATTGTACAAAAGAACGATATATT [XGTACX_site2533] | 9.32 |
| TATTGGATCACACAAAAATGTATAAATAAATAGAAA [TGCATGCA_negctrl_site490] | 9.16 |
| TTATGTTGCGAGTTCTTAAGATATAAAAAATTCTTC [GTGCAC_negctrl_site45] | 8.95 |
| ATCATAACTTGATACGCACACGTTATATAAATAAAA [CACACA_site4955] | 9.01 |
| TGAGAATAAAAAAAAGGGATTATTAGATTTCTCCTT [TGCATGCA_negctrl_site326] | 9.03 |
| AAGACAAATTGTGACACACACAAAAAAAAAAAAAAA [CACACA_site3727] | 9.32 |
| AAAAAAATAAGGTGCACACAAAAAAAAAAAAAAAAA [CACACA_site812] | 9.23 |
| TAAAATAATATTTATGTGCACATATAATTATTAATT | 9.08 |
| AGAAAAAACAAAAGAGAAATGAAAAAAAAAAAAAAA [XGTACX_negctrl_site482] | 8.87 |
| TTTGTGCTTATCCTAACACACACAACATATAAGAAA [CACACA_site9091] | 9.49 |
| ATATATATTTTTATAACACACAATGATGTACATTAC [CACACA_site1076] | 9.4 |
| TGTGTAGCTAGGGGGTTGCTAATTTTTGTTTTGACC [CACACA_negctrl_site634] | 9.72 |

| Sequence | gcPBM binding intensity (ln) |
| --- | --- |
| TTATATATACCATAATGTACTCTATTATATAAAAAA [XGTACX_site7464] | 8.92 |
| GTCTCCTTTATTTTTGGTACAGATAAGATAAAAGGA [XGTACX_site1591] | 8.97 |
| ATTATCAAAAAAAAAAAAAAAAAAAAAAAAAAAAAA [CACACA_negctrl_site1118] | 8.51 |
| GTGTTCATATATAGCCGTACATATGTCTTATGAACG [XGTACX_site5647] | 9.08 |
| AATCAAAATATATCTACACACATTTAAGTAACCCAT [CACACA_site5846] | 9.69 |
| TATAACATTATTTTGTGTACACATTCGGTTATATTA [XGTACX_site6310] | 9.51 |
| ATATAGATCTATAATACACACTTATGAAATGTCTAA [CACACA_site6946] | 9.38 |
| TTGTTTCCGATGAAAGAAAGGAAATTATAATATATC [GTGCAC_negctrl_site516] | 8.99 |
| ACAAAAAAAAAAAAAATACACACACATAAAAAAAAA [TGCATGCA_negctrl_site333] | 9.72 |
| ACAAAATATTTTTCTTCACACATCCATTCAACATTT [CACACA_site5886] | 9.44 |
| AATCAAAACATTAAAAAGAAAAAATATATATATATA [CACACA_negctrl_site366] | 9.03 |
| TATATATATATATATATTAATAATTAATATAAAAGA [XGTACX_negctrl_site32] | 9.19 |
| CCATTCAAATTTCGCACACACATACAAAAAAAAAAA [CACACA_site3093] | 9.56 |
| TATAAATGATTAATTTGTACATATTTTACTTAATTG [XGTACX_site5271] | 9.16 |
| TTGATGATATCATTTTGTACTTATACGTATTTAAAA [XGTACX_site148] | 9.03 |
| TAAATAAATAAATATATATATATATATATATATATA [XGTACX_negctrl_site70] | 8.94 |
| GATTCCTTTAACCCTGCACACATACATACATTTATA [CACACA_site9308] | 10.1 |
| TAATAATATAATAATACACACTCATTATATATATAA [CACACA_site6045] | 9.38 |
| TATATTTCTTATTACATACACACATATACATATATG [CACACA_site3202] | 9.58 |
| ATAGATGCATATTATACACACATATGTAAATACATT [CACACA_site4691] | 9.48 |
| CCACTATATAAAATCACACATTTATATTATACATAT [CACACA_site4570] | 9.37 |
| TATTGGTAATGTAAATGTACATATAGATATTTACAT [XGTACX_site1922] | 9.12 |

| Sequence | gcPBM binding intensity (ln) |
| --- | --- |
| TTTATTTTAATTTATTGTACATTGTTATCAAGTGCA [XGTACX_site1110] | 8.87 |
| TTGAAGTTAATAAAAACTTTATACATGAAATTATTT [CACACA_negctrl_site684] | 8.89 |
| AAAAAAAGAAATTAGGTGCATAGCATTAACCGATAA [GTGCAC_site9582] | 9.3 |
| ATAATAGTTAAATGTACACACTAACTACATGGAATA [CACACA_site5753] | 9.45 |
| TTGAAAAATCAGCACACACACAAATACATACATATT [CACACA_site7505] | 9.9 |
| CTAAAAAAATAATAAAGTACACAAACGAATATATAA [XGTACX_site668] | 9.77 |
| ACATATGGCACATATGTACACACGTATAGATAATAT [CACACA_site2024] | 9.56 |
| TTTTTTTTTTTTTTTGCACACTATATTTAATATAAG [CACACA_site2444] | 9.09 |
| CTTTTTTGGTACATCACACATTTTTACATTCCCTTT [CACACA_site4957] | 9.59 |
| CCATATTTAATAAAATGTACTCATTCTTTTATTTTA [XGTACX_site7802] | 9.16 |
| TTAATAGTGGAAATATGTACATAATTTTGGTCTTTT [XGTACX_site1664] | 9.25 |
| CTGTTCAAAATATGAACACACACATATATATATATA [CACACA_site8638] | 9.47 |
| CTTTAAATGATGTAAACACACACATATACATTATTA [CACACA_site9035] | 9.45 |
| CACATAAAAAAATAAACACACATATGTATATAAATA [CACACA_site7483] | 9.73 |
| TAAAAAAAAATAAAAAGTACATATATATATATATAT [XGTACX_site1155] | 9.14 |
| AATGGAAAAATAGGCACACACACATAAATACAGATA [CACACA_site4844] | 10.3 |
| AATATGAAACAAGACGCACACATAAATAAATAAATA [CACACA_site326] | 9.68 |
| AGTGCTACTCATGATTGAATAGAGGAAAAGGCGGTG [GTGCAC_negctrl_site49] | 9.24 |
| TTTTTTATGTTCAATTGTACATATACATATATATAT [XGTACX_site6013] | 9.31 |
| TTCATATTTCATATATGTACTTATGTTCAATATAGT [XGTACX_site3811] | 9.1 |
| TAATTACACTTTAAAAGTACATATATAATAACATTA [XGTACX_site379] | 9 |
| CAAACAATTAAACAAACACACATATACATGTATATA [CACACA_site2060] | 9.74 |

| Sequence | gcPBM binding intensity (ln) |
| --- | --- |
| AAAATAAGCCATATACGTACATACATATATAAATAT [XGTACX_site4197] | 9.48 |
| ATAGGAAAAAGTATTGGTACACATACATATACGTTA [XGTACX_site5819] | 9.5 |
| TTATATGTTTTGTGTACACAATTTATTAAATTAATA [CACACA_site5645] | 9.23 |
| ACACAAAAAATTAAGTGTACTCATCAAGAAAAAAAA [XGTACX_site3456] | 9.23 |
| TATATATTTTTTTCATGTACATATAAATTAATTAAA [XGTACX_site8680] | 9.04 |
| ATAAAATACCCTGATCTATTACATATTATATTCTGC [GTGCAC_negctrl_site311] | 9.18 |
| GATTTAATAGATACGAGTACAGAAATTGTATACATA [XGTACX_site7563] | 9.32 |
| TACATATTTTTCTTTTCACACATGGAAAAAAAAGGT [CACACA_site5146] | 9.11 |
| ATATATATATATATATATATATATATATATAAGTGG [XGTACX_negctrl_site90] | 9.08 |
| TATTAATTCATTTTTTTTTTTTTTTTTTTTTTTTTT [CACACA_negctrl_site1215] | 9.13 |
| AATATATTTATTATAACACACACATATATATATTAT [CACACA_site8264] | 9.81 |
| TATTTTTTTTTTCACTGTACATACAACAACAAATAT [XGTACX_site8835] | 9.15 |
| CCCTTAATTTAAAACACACAAACAAATAAGTTAGTT [CACACA_site3793] | 9.3 |
| TAGCATGATTTGCCTTGTACACAACCGTTTTAATAA [XGTACX_site7911] | 9.29 |
| AAGTGTTCTTGTTATACACACACATATATATATATA [CACACA_site8251] | 9.8 |
| TATGATAAATATGGAGCACACACACCGAAACATACA [CACACA_site8031] | 10 |
| TAAATGAAAATATGTACACACTTGAAAATTTTTATG [CACACA_site5599] | 9.34 |
| TTTTGTATTTTTCACACACACATAAGTAAACAATAA [CACACA_site1899] | 9.76 |
| TATATTATATATATATGTACATATTATTATATCTAA [XGTACX_site3835] | 8.96 |
| TACAAGAACAAAAAATGTACGAAATAATTACAAATA [XGTACX_site5824] | 9.35 |
| AATCTTTTTAAATCTTGATTAATTTCGGGTATATAT [TGCATGCA_negctrl_site107] | 9.23 |
